Source: US20180289802A1 (CELGENE, published 2018)

Tests used:
[1] = target: cynomolgus PD-1 expressed on cells (cynomolgus monkey, UniProt B0LAJ3 25-288); test: cell-based or functional assay
[2] = target: T1, human PD-1 (soluble / purified antigen, construct not stated) (human, UniProt Q15116 in part, limits assumed); test: Binding ELISA; drug substance Batch B, 5°C, T = 0
T1 construct: also called soluble antigen

[3] = target: T1, human PD-1 (soluble / purified antigen, …); test: Binding ELISA; drug substance Batch A, 5°C, 1 month
[4] = target: T1, human PD-1 (soluble / purified antigen, …); test: Binding ELISA; drug substance Batch B, -70°C, T = 0
[5] = target: T1, human PD-1 (soluble / purified antigen, …); test: Binding ELISA; drug substance Batch B, -20°C, T = 0
[6] = target: T1, human PD-1 (soluble / purified antigen, …); test: Binding ELISA; drug product Batch A, -20°C, initial
[7] = target: T1, human PD-1 (soluble / purified antigen, …); test: Binding ELISA; drug substance Batch B, 5°C, 3 months
[8] = target: T1, human PD-1 (soluble / purified antigen, …); test: Binding ELISA; drug product Batch A, -20°C, 3 months
[9] = target: T1, human PD-1 (soluble / purified antigen, …); test: Binding ELISA; drug substance Batch A, -20°C, 1 month
[10] = target: T1, human PD-1 (soluble / purified antigen, …); test: Binding ELISA; drug substance Batch B, -20°C, 1 month
[11] = target: T1, human PD-1 (soluble / purified antigen, …); test: Binding ELISA; drug substance Batch A, -20°C, 3 months
[12] = target: T1, human PD-1 (soluble / purified antigen, …); test: Binding ELISA; drug substance Batch B, -20°C, 3 months
[13] = target: T1, human PD-1 (soluble / purified antigen, …); test: Binding ELISA; drug substance Batch A, 25°C/60% RH, T = 0
[14] = target: T1, human PD-1 (soluble / purified antigen, …); test: Binding ELISA; drug product Batch A, 5°C upright, initial
[15] = target: T1, human PD-1 (soluble / purified antigen, …); test: Binding ELISA; drug product Batch B, 5°C inverted, 1 month
[16] = target: T1, human PD-1 (soluble / purified antigen, …); test: Binding ELISA; drug substance Batch A, 25°C/60% RH, 1 month
[17] = target: T1, human PD-1 (soluble / purified antigen, …); test: Binding ELISA; drug product Batch A, 5°C inverted, 3 months
[18] = target: T1, human PD-1 (soluble / purified antigen, …); test: Binding ELISA; drug product Batch A, 25°C/60% RH upright, 1 month
[19] = target: T1, human PD-1 (soluble / purified antigen, …); test: Binding ELISA; drug product Batch A, 25°C/60% RH upright, initial
[20] = target: T1, human PD-1 (soluble / purified antigen, …); test: Binding ELISA; drug product Batch A, 25°C/60% RH inverted, 1 month
[21] = target: T1, human PD-1 (soluble / purified antigen, …); test: Binding ELISA; drug product Batch A, 25°C/60% RH inverted, initial
[22] = target: T1, human PD-1 (soluble / purified antigen, …); test: Binding ELISA; drug product Batch B, 25°C/60% RH inverted, 1 month
[23] = target: T1, human PD-1 (soluble / purified antigen, …); test: Binding ELISA; drug product Batch A, 25°C/60% RH upright, 0.5 month
[24] = target: T1, human PD-1 (soluble / purified antigen, …); test: Binding ELISA; drug product Batch B, 25°C/60% RH upright, 0.5 month
[25] = target: T1, human PD-1 (soluble / purified antigen, …); test: Binding ELISA; drug product Batch A, 25°C/60% RH inverted, 0.5 month
[26] = target: T1, human PD-1 (soluble / purified antigen, …); test: Binding ELISA; drug product Batch B per paragraph 782 (table head prints Batch A), 5°C upright, 1 month
[27] = target: T1, human PD-1 (soluble / purified antigen, …); test: Binding ELISA; drug product Batch B per paragraph 782 (table head prints Batch A), 5°C upright, initial

Sequence of UniProt B0LAJ3 (B0LAJ3 entry or part of it limits assumed): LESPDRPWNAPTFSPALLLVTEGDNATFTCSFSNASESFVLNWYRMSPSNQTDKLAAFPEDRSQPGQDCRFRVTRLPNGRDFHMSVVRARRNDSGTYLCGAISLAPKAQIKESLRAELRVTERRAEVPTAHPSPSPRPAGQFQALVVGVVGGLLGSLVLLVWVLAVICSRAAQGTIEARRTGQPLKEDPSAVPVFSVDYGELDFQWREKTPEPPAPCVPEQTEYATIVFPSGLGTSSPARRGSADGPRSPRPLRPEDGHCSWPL
T1 sequence (Q15116 25-170 limits assumed): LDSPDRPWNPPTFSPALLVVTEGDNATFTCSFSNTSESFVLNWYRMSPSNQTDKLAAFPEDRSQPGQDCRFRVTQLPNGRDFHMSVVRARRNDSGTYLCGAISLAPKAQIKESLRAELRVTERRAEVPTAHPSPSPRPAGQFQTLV

B1: PD1AB-6-K3 (antibody, human IgG1, kappa)
heavy: EVQLVQSGAEVKKPGATVKISCKASGFNIKDTYMHWVQQAPGKGLEWMGRIDPANGDRKYDPKFQGRVTITADTSTDTAYMELSSLRSEDTAVYYCARSGPVYYYGSSYVMDYWGQGTTVTVSS[human IgG1 constant region with changes not written out]
light: DIVMTQSPDSLAVSLGERATINCKSGQSVLYSSNQKNFLAWYQQKPGQPPKLLIYWASTRESGVPDRFSGSGSGTDFTLTISSLQAEDVAVYYCHQYLYSWTFGQGTKLEIKRTVAAPSVFIFPPSDEQLKSGTASVVCLLNNFYPREAKVQWKVDNALQSGNSQESVTEQDSKDSTYSLSSTLTLSKADYEKHKVYACEVTHQGLSSPVTKSFNRGEC
notes: also called PD1AB-6-IgG1-K322A; PD1AB-6-K322A
- IL-2 EC50 (nM), cynomolgus PBMC assay, NHP1 [1]: 0.24 nM
- IL-2 EC50 (nM), cynomolgus PBMC assay, NHP2 [1]: 2.5 nM
- IL-2 EC50 (nM), cynomolgus PBMC assay, NHP3 [1]: 9.24 nM
- IL-2 EC50 (nM), cynomolgus PBMC assay, NHP4 [1]: 1.22 nM
- Binding ELISA, ratio of Reference EC50/Sample EC50 [2]: 76%
- Binding ELISA, ratio of Reference EC50/Sample EC50 [3]: 78%
- Binding ELISA, ratio of Reference EC50/Sample EC50 [4]: 76%
- Binding ELISA, ratio of Reference EC50/Sample EC50 [5]: 76%
- Binding ELISA, ratio of Reference EC50/Sample EC50 [6]: 86%
- Binding ELISA, ratio of Reference EC50/Sample EC50 [7]: 74%
- Binding ELISA, ratio of Reference EC50/Sample EC50 [8]: 95%
- Binding ELISA, ratio of Reference EC50/Sample EC50 [9]: 79%
- Binding ELISA, ratio of Reference EC50/Sample EC50 [10]: 84%
- Binding ELISA, ratio of Reference EC50/Sample EC50 [11]: 89%
- Binding ELISA, ratio of Reference EC50/Sample EC50 [12]: 66%
- Binding ELISA, ratio of Reference EC50/Sample EC50 [13]: 99%
- Binding ELISA, ratio of Reference EC50/Sample EC50 [14]: 86%
- Binding ELISA, ratio of Reference EC50/Sample EC50 [15]: 83%
- Binding ELISA, ratio of Reference EC50/Sample EC50 [16]: 83%
- Binding ELISA, ratio of Reference EC50/Sample EC50 [17]: 97%
- Binding ELISA, ratio of Reference EC50/Sample EC50 [18]: 74%
- Binding ELISA, ratio of Reference EC50/Sample EC50 [19]: 86%
- Binding ELISA, ratio of Reference EC50/Sample EC50 [20]: 73%
- Binding ELISA, ratio of Reference EC50/Sample EC50 [21]: 86%
- Binding ELISA, ratio of Reference EC50/Sample EC50 [22]: 78%
- Binding ELISA, ratio of Reference EC50/Sample EC50 [23]: 91%
- Binding ELISA, ratio of Reference EC50/Sample EC50 [24]: 85%
- Binding ELISA, ratio of Reference EC50/Sample EC50 [25]: 102%
- Binding ELISA, ratio of Reference EC50/Sample EC50 [26]: 107%
- Binding ELISA, ratio of Reference EC50/Sample EC50 [27]: 82%
